Over roughly 33,000 sequences, “E-score (-0.5 to 0.5)” has its median near -0.041; the highest 2% begin near 0.37. The list shows a part of the results.
Each sequence was assayed against T1, Ecm22 (UniProt Q05958) (assay: PBM E-score (8-mer binding enrichment) (E-score (-0.5 to 0.5)); higher = stronger / more preferred TF binding; most listed sequences are background and not binding sites). Settings: protein concentration: 200 nM; construct: GST-full length.
T1 sequence: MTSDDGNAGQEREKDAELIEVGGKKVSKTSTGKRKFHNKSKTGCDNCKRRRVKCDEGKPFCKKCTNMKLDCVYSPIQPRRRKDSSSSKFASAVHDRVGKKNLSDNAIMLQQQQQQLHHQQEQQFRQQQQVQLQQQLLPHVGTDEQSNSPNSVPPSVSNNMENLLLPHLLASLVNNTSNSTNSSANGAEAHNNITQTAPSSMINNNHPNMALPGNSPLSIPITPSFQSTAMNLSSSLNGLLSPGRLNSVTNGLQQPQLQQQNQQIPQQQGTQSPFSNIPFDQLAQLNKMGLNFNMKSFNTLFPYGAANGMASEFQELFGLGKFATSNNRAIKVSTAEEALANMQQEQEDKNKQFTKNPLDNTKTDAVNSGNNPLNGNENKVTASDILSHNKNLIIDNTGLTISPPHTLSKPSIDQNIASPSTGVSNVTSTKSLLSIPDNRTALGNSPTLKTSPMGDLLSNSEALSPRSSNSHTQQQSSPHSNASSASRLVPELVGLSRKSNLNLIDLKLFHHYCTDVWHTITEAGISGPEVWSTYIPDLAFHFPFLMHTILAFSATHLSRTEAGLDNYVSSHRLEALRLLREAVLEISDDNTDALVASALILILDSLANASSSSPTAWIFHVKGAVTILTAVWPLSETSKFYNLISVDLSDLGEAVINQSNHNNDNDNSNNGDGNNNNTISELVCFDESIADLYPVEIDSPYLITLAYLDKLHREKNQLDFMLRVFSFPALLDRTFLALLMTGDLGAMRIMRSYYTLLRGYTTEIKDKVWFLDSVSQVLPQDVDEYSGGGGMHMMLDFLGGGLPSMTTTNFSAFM
Method in brief: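 Masliner-normalised scans of fluorescent anti-GST signal were the basis for scoring. That signal came from GST-tagged yeast transcription factors applied at about 100-200 nM to double-stranded universal all-10-mer Agilent arrays on fresh or once-stripped slides. Each ungapped eight-base word, pooled with its reverse complement, received an E-score from the Universal PBM Analysis Suite.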

| Sequence | PBM E-score |
| --- | --- |
| AACTAATA | 0.098 |
| GGGAATCA | -0.171 |
| CAAAGCCG | 0.0156 |
| TAAAGGCA | -0.0439 |
| ACAAAAGT | -0.0624 |
| AAGGGACG | -0.12 |
| CGAGTAGA | 0.198 |
| ACTTGATG | -0.139 |
| ACAAAATC | -0.103 |
| ACCTGCGT | 0.0491 |
| GGGTTGAA | -0.0994 |
| ATCAGTCC | -0.316 |
| CCTTAAGG | 0.119 |
| CGCATACG | 0.385 |
| CGCTAGGA | -0.206 |
| AACCACAT | -0.121 |
| GAAGTAGC | -0.106 |
| GATGGGGA | -0.103 |
| GGCCTTTA | -0.0923 |
| GTGGCCAA | -0.227 |
| CTGTCCGC | 0.0898 |
| TGATAGCA | -0.0351 |
| AAATGATA | 0.198 |
| ATGTAAAT | -0.1 |
| GACTTTCA | -0.269 |

| Sequence | PBM E-score |
| --- | --- |
| GACAACCC | 0.0885 |
| ATACACGG | 0.0678 |
| AGCGGATG | 0.0566 |
| AGAGCTAC | -0.205 |
| ATTCAGAA | -0.149 |
| CGGCACTC | -0.174 |
| CCGAAGGA | 0.0738 |
| CACGATCC | 0.125 |
| GCACAAGC | -0.049 |
| AGGGGCCC | -0.23 |
| CTAATTAG | -0.0197 |
| AAGCGCTT | 0.004 |
| CATGGCCC | -0.201 |
| ATCCGGTG | 0.0947 |
| CCGTATAC | 0.456 |
| CCGAGACA | 0.0867 |
| CGGTGCAC | 0.0613 |
| CTATAGCC | -0.154 |
| ACTATTCA | 0.0653 |
| CTCCAGAC | -0.0442 |
| GGGACAAA | -0.216 |
| CGGTTCCC | 0.0968 |
| CAACCGCC | -0.215 |
| TAGGTTAA | -0.126 |
| CTTATGTC | -0.0821 |

| Sequence | PBM E-score |
| --- | --- |
| TCCGTTAA | 0.194 |
| CGACGTTA | 0.196 |
| ACTACGGC | -0.0479 |
| CAAGCGGC | -0.058 |
| GACGCGGC | -0.0863 |
| CTCTTTAC | -0.115 |
| ACTTGACA | -0.15 |
| GTTGTCAA | 0.036 |
| GCTATTAA | -0.0627 |
| GGAATACC | 0.0748 |
| AGAAAACC | -0.0519 |
| GCACATGA | -0.199 |
| CCCGGTCA | -0.281 |
| TCACTTAA | -0.0701 |
| GTAATACA | 0.122 |
| ACCATTAG | -0.169 |
| AAGCCCCT | -0.128 |
| ATATTGAC | -0.147 |
| GTCTCTGA | -0.0103 |
| AATGTCAC | -0.18 |
| CGCTTTAA | 0.0272 |
| ATTCTGTC | 0.0892 |
| ACATAGCT | -0.2 |
| ACAACCTA | -0.044 |
| ACATGGCC | -0.0578 |

| Sequence | PBM E-score |
| --- | --- |
| TTGACCAA | -0.198 |
| ATAAACTA | 0.0319 |
| CGTAACAA | 0.266 |
| CGAAGGAG | 0.129 |
| ACGAGTCG | 0.384 |
| GAGAGACC | -0.21 |
| TACATCTA | -0.0919 |
| ACGTCCGC | 0.0934 |
| ACTCGAAA | 0.0636 |
| ACAACCGT | 0.161 |
| ACCCACGA | -0.0257 |
| GTGACTAA | -0.037 |
| GAGTCCGA | 0.0343 |
| GCCTAAGA | -0.219 |
| GGCGAGTA | -0.0596 |
| ATATCTCA | 0.0447 |
| GAGGCTGA | -0.296 |
| TACGAGTA | 0.467 |
| CCGAGGTC | 0.11 |
| AAGTAAGC | -0.0306 |
| TCTCCTCA | -0.104 |
| GGAGTCTA | -0.398 |
| ATCCTTAA | -0.138 |
| CTTCCCAA | -0.12 |
| GTGGGGGA | -0.123 |

| Sequence | PBM E-score |
| --- | --- |
| GATATAAC | 0.156 |
| CGATTGGC | -0.0471 |
| ATCACCCG | 0.0266 |
| CTCGTCCC | -0.0792 |
| CTCCAGCC | -0.205 |
| ACCTTTCG | 0.094 |
| ATTATTTG | 0.00973 |
| GTTCTGGA | 0.205 |
| TCAAGGAA | -0.181 |
| AATCGCCA | -0.0664 |
| AGTGGTAT | -0.166 |
| TCCCGAAA | 0.0359 |
| ACAAGTAT | 0.0351 |
| AAGAGTGC | -0.0387 |
| AATTTGGT | -0.00455 |
| AGACTTAC | -0.0949 |
| ATGCTCCG | 0.0236 |
| ACCACCCA | -0.173 |
| AATGGATG | -0.0307 |
| ACAGGTAA | -0.0149 |
| ACACAACA | 0.0892 |
| AATGTTTC | -0.0614 |
| CTCACTCC | -0.278 |
| CTGAGTTC | -0.0251 |
| GGGGTGAC | -0.162 |

| Sequence | PBM E-score |
| --- | --- |
| GCACGCGA | 0.0651 |
| CTAAGTCC | -0.259 |
| CCGCAAAC | 0.0983 |
| TACCCAAA | -0.112 |
| CTATAGGC | -0.155 |
| CTTGAAAG | -0.0974 |
| CCACCGAG | -0.143 |
| GCGCGAGC | 0.0262 |
| ACACTATG | 0.0551 |
| GGGCAACC | -0.164 |
| ACTTGTAT | 0.00095 |
| AGCTCAAG | -0.182 |
| CCGTCGAA | -0.015 |
| AAATATTA | 0.161 |
| ACGAGGTA | 0.413 |
| ATCAATCC | -0.12 |
| CGTTCCCA | 0.443 |
| CAACAATG | -0.0714 |
| CATATTTC | -0.017 |
| CCGATTGC | 0.0808 |
| GTGGACAC | -0.197 |
| CCCCATAG | -0.228 |
| ATAGTCCA | -0.155 |
| AGCATCAG | -0.0729 |
| ATTCCGGG | -0.177 |

| Sequence | PBM E-score |
| --- | --- |
| AGGTAATC | -0.00582 |
| CGCGTATC | 0.232 |
| AGTTCTGA | -0.25 |
| AAAGGGCA | -0.207 |
| CAACTTCA | -0.0982 |
| TGGGAACA | -0.136 |
| ATAAGACA | 0.0326 |
| CTGCTTAC | 0.0232 |
| ACAACAGC | -0.12 |
| AGCCCACG | 0.0362 |
| ACGCAAAG | 0.00366 |
| AAAGTCCT | -0.18 |
| ACGACTTG | 0.265 |
| GTGTCTAA | -0.191 |
| AAGGGAGT | -0.172 |
| CATGAAGA | 0.07 |
| GTCCTATA | -0.0744 |
| AGACGAAG | 0.0703 |
| CGACGATA | 0.222 |
| AAATGCAA | -0.183 |
| AACGTGGA | 0.143 |
| AAGTTTTC | 0.0919 |
